Test results: PubChem BioAssay AID485281 (National Center for Advancing Translational Sciences (NCATS), 2010)
In all, about 350,000 compounds went through this assay and about 260 (0.074%) were called active. This list was built around the results that the source calls inconclusive (neither active nor inactive); the mix of calls is not that of the screen. The call rests on the fitted dose curve; in most records, active means well fitted inhibition curve with a large enough effect; inconclusive means small, poorly fitted or top-dose-only effect; inactive means no such curve, though single readings can be large or run the other way. Potencies beside an inconclusive call are fits to weak or partial responses and may not hold up.

target: Ferritin light chain (Equus caballus) (UniProt P02791); assay: qHTS Assay for Identification of Novel General Anesthetics; details: apoferritin/1-aminoanthracene competitive binding, fluorescence; activity change, negative = displacement: at 77.5 µM (top of the series); further: nearly all actives have a fitted effect of over 20% in size
In short: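 Apoferritin-based anesthetic binding model; compound displacement of fluorescent 1-AMA measured as endpoint fluorescence after 10 minutes at room temperature, scaled to free-ligand and complex controls.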
On the % scale 0 is the no-effect control and ±100 the full control effect; potency means the concentration at half of the fitted maximal effect; tags describe the fitted curve by direction and shape.

UniProt P02791, sequence (P02791 whole entry, looked up): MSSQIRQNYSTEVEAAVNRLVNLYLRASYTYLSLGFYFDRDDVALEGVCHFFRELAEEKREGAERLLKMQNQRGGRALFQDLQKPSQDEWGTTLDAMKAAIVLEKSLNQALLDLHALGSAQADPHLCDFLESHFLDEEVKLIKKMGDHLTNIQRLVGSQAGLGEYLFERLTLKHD

Potency, inconclusive:
O=C(NNS(=O)(=O)c1ccccc1)c1cc2cc3ccccc3nc2s1 44.7 µM [inhibitor, single point]
Cc1ccc(C(=O)C(C)Sc2nnc(N)s2)cc1 (centres undefined) 25.1 µM [inhibitor, single point]
CC1=C(c2ccc(C)c(C)c2)S(=O)(=O)N=C1N1CCC(C(=O)NCc2ccc(Cl)cc2)CC1 15.8 µM [inhibitor, partial curve]
O=C(Cn1c(SCC(=O)N2CCc3ccccc3C2)nc2ccccc21)NC1CCCC1 15.8 µM [inhibitor, partial curve]
CC(C)C(=O)N1CCN(c2ccccc2NC(=O)c2cc([N+](=O)[O-])ccc2N2CCOCC2)CC1 35.5 µM [inhibitor, partial curve]
CCn1c(SC)nnc1-c1sc2cc(Cl)ccc2c1Cl 44.7 µM [inhibitor, single point]
CCOc1ccccc1OCCCOc1ccc([N+](=O)[O-])cc1Cl 10 µM [inhibitor, partial curve]
CCn1c(CNC(=O)C23CC4CC(CC(C4)C2)C3)nnc1SCC(=O)Nc1ccc(F)cc1 50.1 µM [inhibitor, single point]
CC(C)CC(NC(=O)C1CCC(C)CC1)C(=O)Nc1ccc2c(c1)OCCO2 (centres undefined) 35.5 µM [inhibitor, partial curve]
O=C1c2ccccc2C(=O)N1CCCCN(C(=O)c1ccc([N+](=O)[O-])cc1)c1ccc(Cl)cc1 35.5 µM [inhibitor, partial curve]
CN1C(=S)SC(N(O)C(=O)Nc2cccc3ccccc23)C1(C)C (centres undefined) 31.6 µM [inhibitor, single point]
CC(OC(=O)CCc1nc2ccccc2c(=O)[nH]1)C(=O)c1ccc(C(C)(C)C)cc1 (centres undefined) 15.8 µM [inhibitor, partial curve]
Cc1ccc(NC(=O)c2cccs2)cc1NC(=O)c1ccco1 28.2 µM [inhibitor, partial curve]
COc1cccc(C(=O)Nc2nnc(SCC(=O)Nc3ccc(NC(C)=O)cc3)s2)c1 44.7 µM [inhibitor, single point]
Cc1cccc(CSc2nc3c(c(-c4cccs4)c2C#N)CN(C)CC3)c1 15.8 µM [inhibitor, partial curve]
Cc1ccc(S(=O)(=O)NNc2ccccc2)cc1 20 µM [inhibitor, partial curve]
CN(NS(=O)(=O)c1ccc(Cl)cc1)c1ncc(C(F)(F)F)cc1Cl 17.8 µM [inhibitor, partial curve]
CC(C)(C)c1ccc(C(=O)Nc2ccc(O)c3c(=O)cc(-c4ccccc4Cl)oc23)cc1 39.8 µM [inhibitor, single point]
Cc1cccc(-c2nc(CS(=O)CC(=O)NCCCSC3CCCCC3)c(C)o2)c1 (centres undefined) 25.1 µM [inhibitor, partial curve]
Cc1ccccc1NC(=O)CC1SC(=O)N(c2ccccc2)C1=O (centres undefined) 28.2 µM [inhibitor, partial curve]
COc1ccc(N(C)S(=O)(=O)c2ccc(C)cc2)c([N+](=O)[O-])c1 31.6 µM [inhibitor, single point]
CCOc1ccc(NC(=O)NNC(=O)c2ccc3ccccc3c2O)cc1 25.1 µM [inhibitor, partial curve]
CCNC(=O)C1CC(=O)N(CC)C(=Nc2cc(Cl)c(O)c(Cl)c2)S1 (centres undefined) 22.4 µM [inhibitor, partial curve]
Cc1ccc(S(=O)(=O)N2CCOCC2)cc1NC(=O)COC(=O)CNC(=O)c1ccc(C(C)(C)C)cc1 56.2 µM [inhibitor, single point]
CC(C)(C)c1ccc(C(=O)CC(Sc2ccc(Cl)cc2)C(=O)O)cc1 (centres undefined) 28.2 µM [inhibitor, partial curve]
COc1ccccc1Nc1nc(-c2sc(NC(=O)C(C)(C)C)nc2C)cs1 11.2 µM [inhibitor, partial curve]
S=C(c1cn(Cc2ccccc2)c2ccccc12)N1CCOCC1 20 µM [inhibitor, partial curve]
Cc1cc(SCC(=O)N/N=C/c2ccc(O)cc2O)c(C)cc1Br 31.6 µM [inhibitor, partial curve]
O=C(Nc1ccc(S(=O)(=O)N2CCOCC2)cc1)c1cccc(Br)c1 56.2 µM [inhibitor, single point]
CC(NCCCOc1cccc2ccccc12)c1ccccc1 (centres undefined) 39.8 µM [inhibitor, single point]
O=C(COc1cccc2ccccc12)NNC(=O)Nc1ccccc1 12.6 µM [inhibitor, partial curve]
Cc1nnc(SCC(=O)NC23CC4CC(CC(C4)C2)C3)s1 12.6 µM [inhibitor, partial curve]
COc1ccc(-c2ccc(SCC(=O)c3ccc(F)cc3)nn2)cc1OC 11.2 µM [inhibitor, partial curve]
CCOC(=O)CCCNc1ccc([N+](=O)[O-])cc1[N+](=O)[O-] 56.2 µM [inhibitor, single point]
CC(=O)OCc1nc2sc3c(c2c(=O)[nH]1)CCCC3 0.794 µM [inhibitor, full curve, poor fit]
Cc1cc(C(=O)CSc2nc3ccccc3[nH]2)c(C)n1CC1CCCO1 (centres undefined) 25.1 µM [inhibitor, partial curve]
CCn1nc(C(=O)Nc2ccccc2C)c(Cl)c1Cl 50.1 µM [inhibitor, single point]
CCCc1ccc2oc(C(=O)N3CCC(COC)C3)c(C)c2c1 (centres undefined) 22.4 µM [inhibitor, partial curve]
CN1CCCC(OC(=O)c2ccccc2Br)C1 (centres undefined) 28.2 µM [inhibitor, partial curve]
COCCCNc1oc(COc2ccc(Cl)cc2Cl)nc1C#N 39.8 µM [inhibitor, partial curve]
CCc1c(C#N)c(SCCC(=O)Nc2cccc(OC)c2)nc2c1C(=O)CC(C)(C)C2 14.1 µM [inhibitor, partial curve]
Cc1cc(C(=O)COc2cccc(-n3cnnn3)c2)c(C)n1-c1ccccc1 25.1 µM [inhibitor, partial curve]
Cc1ccc(S(=O)(=O)c2nc(Nc3nccs3)sc2Cl)cc1 20 µM [inhibitor, partial curve]
NS(=O)(=O)OCCCc1ccccc1 31.6 µM [inhibitor, single point]
O=C(CSc1ccc(Cl)cc1)N/N=C/c1ccc([N+](=O)[O-])o1 31.6 µM [inhibitor, partial curve]
O=C(O)C1CCCCC1C(=O)Nc1ccc(F)cc1F (centres undefined) 35.5 µM [inhibitor, partial curve]
CCOC(=O)c1[nH]c2cc3c(cc2c1NC(=O)CN1CCC(C)CC1)OCO3 28.2 µM [inhibitor, partial curve]
O=C(N/N=C\c1cc(Br)cs1)C1COc2ccccc2O1 (centres undefined) 14.1 µM [inhibitor, partial curve]
O=[N+]([O-])c1ccc(Cl)c(C2Nc3cccc4cccc(c34)N2)c1 25.1 µM [inhibitor, partial curve]
COc1ccc(NC(=O)CN(C)C(=O)C23CC4CC(CC(C4)C2)C3)cc1 15.8 µM [inhibitor, partial curve]
Cc1[nH]c2ccc(CNS(=O)(=O)c3ccc(S(=O)(=O)N4CCOCC4)cc3)cc2c1C 17.8 µM [inhibitor, partial curve, poor fit]
O=C(/C=C/c1ccccc1)c1ccc2c(c1)OCCCCO2 12.6 µM [inhibitor, partial curve]
O=C(Cn1ncc2c1-c1ccccc1OC2)N(Cc1ccco1)C1CCCCC1 39.8 µM [inhibitor, partial curve]
O=C(CSc1nc2ccccc2o1)Nc1ccc(N2CCOCC2)c(Cl)c1 28.2 µM [inhibitor, partial curve]

Potency, inactive:
C=C1C(c2ccc(C)cc2)=CCc2cc(C)cc(C)c21

Activity change, negative = displacement, inactive:
CCOc1ccc(NC(=O)Cn2cc(C(=O)c3ccc(CC)cc3)c(=O)c3ccc(C)nc32)cc1 -23.1%
Cc1ccc(-c2cc(C)nc3nc(N)nn23)cc1 -11.3%
Cc1ccccc1-c1nccc(-n2ccnc2)n1 -12.1%
Cc1ccc(/C=C2\SC(=S)N(CCCC(=O)Nc3cccnc3)C2=O)cc1 -13.9%
COc1ccc(C2N(S(=O)(=O)c3ccc(C)cc3)CCN2S(=O)(=O)c2ccc(C)cc2)cc1 34.1%
COCCCNC(=O)c1c(N)n(-c2ccc(S(N)(=O)=O)cc2)c2nc3ccccc3nc12 186%
NC(=O)c1ccc(-n2nnnc2SCC(=O)c2ccc(O)c(O)c2)cc1 -18.5%
O=C(O)/C=C/C(=O)NCc1ccccc1 -0.276%
COc1ccc(C2=C(c3ccc([N+](=O)[O-])cc3)C(=O)OC2)cc1 -10.4%
